Measurements reported in PubChem BioAssay AID1508623 (National Center for Advancing Translational Sciences (NCATS), 2021).
The campaign covered roughly 48,000 compounds. About 450 (0.94%) were called active. Not shown: some 19% with an inconclusive outcome. The call rests on the fitted dose curve; in most records, active means well fitted inhibition curve with a large enough effect; inconclusive means small, poorly fitted or top-dose-only effect; inactive means no such curve, though single readings can be large or run the other way. The list shows a part of the results.

Test: Primary qHTS for Identification of Small Molecule Inhibitors of Huntingtin Promoter Activity; further: nearly all actives have a fitted effect of over 50% in size
Details: HEK293 HTT promoter firefly luciferase reporter (activity 0% = vehicle and -100% = no light), 24 h; series mostly up to 57.5 µM; activity change, negative = inhibition: at the top concentration
Summary of the method: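 Firefly luciferase signal from promoter-reporter HEK293 cells was scaled between vehicle (0%) and zero RLU (-100%). Compounds were tested at final concentrations of up to 57.5 uM over 24 h at 37 degrees C. PTC124 at 50 uM final served as control inhibitor.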

Activity change, negative = inhibition, inactive:
CCOC(=O)c1c(C)c(C(=O)NCCc2ccc(OC)cc2)c(C)n1C 2.76%
CCc1nn(CC(=O)Nc2cccc(C)c2C)c(=O)c2cc3sccc3n12 -1.52%
CN(C(=O)CSc1cn(CC(=O)N2CCCCC2)c2ccccc12)c1ccccc1 -5.68%
O=C(Cc1ccc(F)cc1)N1CCC(c2nc3c(nnn3Cc3ccc(Cl)cc3)c(=O)[nH]2)CC1 -26.5%
COc1ccc(-c2noc(C3CC(=O)N(c4cc(C)cc(C)c4)C3)n2)cc1 (configuration not stated) 0%
O=C(CCCCCN1C(=O)c2cccc3cccc(c23)C1=O)NO 176%
CCC(C)NC(=O)c1ccc2c(c1)N(Cc1ccccc1)C(=O)c1ccccc1S2(=O)=O (configuration not stated) -16%
CN1CCN(CCCNC(=O)c2cnn(-c3ccccc3)c2C2CCN(C(=O)OC(C)(C)C)CC2)CC1 0.675%
CCC(Oc1ccccc1)C(=O)Nc1ccccc1OCc1cc(=O)n2ccccc2n1 (configuration not stated) -5.2%
CC1=C(C(=O)Nc2ccc(Cl)cc2)C(C(C)C)n2nc(SCc3cccc(C)c3)nc2N1 (configuration not stated) 1.85%
Cc1c2cnn(-c3ccccc3)c(=O)c2c(C)n1CCCC(=O)Nc1ccc(F)cc1F -18.2%
CC(C)(C)C1CCc2onc(C(=O)Nc3sc4c(c3C(N)=O)CCCC4)c2C1 (configuration not stated) 5.62%
Cc1c(Cl)cccc1NC(=O)CCS(=O)(=O)c1ccc(Br)s1 -2.79%
NC(=O)c1cc(S(=O)(=O)NCC2CCC(C(=O)Nc3cccc(Cl)c3)CC2)cs1 (configuration not stated) -32.3%
CCCc1nnc(NC(=O)c2nc(S(=O)(=O)Cc3ccc(C)cc3)ncc2Cl)s1 -31.2%
O=C(c1ccc2c(Cl)c3c(nc2c1)CCCC3)N1CCN(c2ccccc2)CC1 -0.0756%
Cc1ccc(C)c(NC(=O)CCNS(=O)(=O)c2ccc3c(c2)CCCC(=O)N3)c1 -31.4%
CN(C(=O)CSc1nnc2[nH]c(=O)cc(-c3ccccc3)n12)c1ccccc1 10.5%
COCCNC(=O)c1ccc2c(c1)N(Cc1cccc(Cl)c1)C(=O)c1ccccc1S2=O (configuration not stated) -18.1%
CCOC(=O)c1cc(-c2ccccc2)n(CC(=O)NCc2ccccc2OC)c1C -17.7%
Cn1c(=O)n(C)c2cc(S(=O)(=O)Nc3ccccc3C(=O)O)ccc21 4.23%
O=C(Nc1ccc(F)c(F)c1)C1CCCN(S(=O)(=O)c2cccc3nonc23)C1 (configuration not stated) -12.1%
Cc1ccc(C)c(N2CCN(C(=O)CN3C(=O)CSc4c3c(C)nn4-c3ccccc3)CC2)c1 -15.4%
Cc1cc(C)c2c(=O)cc(CSCC(=O)Nc3nnc(C)s3)[nH]c2c1 0.508%
COc1ccc(N(C)C(=O)NCc2noc3ccc(C)cc23)c(OC)c1 -5.47%
CCCNC(=O)Nc1cc(C(=O)NCc2cccc(OCC)c2)ccc1N1CCCC1 -22.7%
COc1ccc(C(=O)CCC(=O)Nc2ccccc2C)cc1 7.09%
COc1ccccc1NC(=O)CSCc1cc(=O)c2c(C)cc(C)cc2[nH]1 -2.89%
Cn1cc(C[C@@H](N)C(=O)O)c2ccccc21 -6.63% [at 25.2 µM]
Cc1cccc(NC(=O)C2CCCN(S(=O)(=O)c3c(C)noc3/C=C/N(C)C)C2)c1C (configuration not stated) -21.2%
CCC(Sc1nncn2c1cc1sccc12)C(=O)Nc1cccc(OC)c1 (configuration not stated) 1.53%
Cc1ccc(CN2CCN(C3CCN(C(=O)OC(C)(C)C)CC3)C(=O)C2=O)cc1 -13.1%
CC(C)(C)c1ccc(C(=O)Nc2ccccc2C(=O)OCc2cc(=O)n3ccsc3n2)cc1 19.6%
C/C(=C(\CCOP(=O)(O)O)SC(=O)c1ccccc1)N(C=O)Cc1cnc(C)nc1N -1.77% [at 6.01 µM]
Cc1cc2nc3c(=O)n(C)c(=O)n(C)c3nc2cc1N=CN(C)C 18.9%
CCOC(=O)CC(NC(=O)Cn1nnc(-c2ccccc2C)n1)c1ccc(OC)cc1 (configuration not stated) -6%
CCC(=O)N1CCc2cc(Br)cc(S(=O)(=O)CCC(=O)Nc3ccccc3C)c21 -6.66%
COc1ccc(-c2nc(SCC(=O)NCCCc3ccccc3)n[nH]2)cc1 -28.5%
COc1ccc(NC(=O)CCc2c(C)nn(-c3ccc(N4CCOCC4)nn3)c2C)cc1Cl 22.2%
CCN(CC)CCCNC(=O)c1oc2c(c1C)-c1nn(Cc3ccc(Cl)cc3)cc1CC2 -7.53%
Cc1ccc2occ(CC(=O)Nc3ccc(S(N)(=O)=O)cc3)c2c1 -16.4%
COc1ccc(NC(=O)Cn2c(C)c3cnn(-c4ccccc4)c(=O)c3c2C)c(OC)c1 -16.4%
Cc1cccc(-c2noc(C3CC(=O)N(c4ccc5c(c4)OCCO5)C3)n2)c1 (configuration not stated) 4.87%
Cc1ccc(N(CC(=O)NC(C)c2ccccc2)S(=O)(=O)c2c(C)noc2C)cc1 (configuration not stated) -22.9%
CCc1ccc(C(=O)c2cn(CC(=O)Nc3ccc(F)cc3)c3cc4c(cc3c2=O)OCO4)cc1 -27%
Cc1cc(OCC(=O)Nc2sc3c(c2C(N)=O)CCCC3)ccc1C(C)C -13.2%
COCCNC(=O)CCC(=O)NNc1nc2ccccc2c2nc(-c3ccccc3)nn12 6.19%
CCOc1ccc(NC(=O)CSc2ncc3c(n2)-c2ccccc2N(C)S3(=O)=O)cc1 -16%
Cc1ccc(NC(=O)N2CCC(n3c(C)nc4cccnc43)CC2)c(Cl)c1 -3.99%
Clc1ccccc1-c1nc(Nc2ccccc2)nc2ccc(Br)cc12 -8.28%
Nc1c2c(nc3ccccc13)CCCC2
Cc1cc(C)cc(NC(=O)C2CCN(S(=O)(=O)c3cccc4nonc34)CC2)c1 -4%
COc1ccc(CNC(=O)Nc2cn(CC(C)C)c(=O)c3ccccc23)c(OC)c1 5.96%
CCCCC(CC)COC(=O)C(C#N)=C(c1ccccc1)c1ccccc1 (configuration not stated)
CCC(Oc1ccccc1)C(=O)Nc1nnc(S(=O)(=O)Nc2ccccc2)s1 (configuration not stated) -5.24%
Cc1noc(-c2ccccc2OCC(=O)Nc2cccc([N+](=O)[O-])c2)n1 -5.17%
COC(=O)CCc1sc(Nc2ccc(OC)cc2)nc1-c1ccc(OC)cc1 -15.1%
Cc1ccccc1NC(=O)CC1C(=O)NCCN1C(=O)c1cccc(Cl)c1 (configuration not stated) -2.88%
CC(=O)c1ccc(N2CCN(C(=O)NCc3noc4ccc(C)cc34)CC2)cc1 -30%
CCOC(=O)C1CCCN(S(=O)(=O)c2ccc3[nH]c(=O)ccc3c2)C1 (configuration not stated) -33.8%
Cc1ccc(S(=O)(=O)NCc2nc3nc(C)cc(C)n3n2)c(C)c1 0%
CCOC(=O)c1ccccc1NC(=O)CSc1nc2ncccc2[nH]1 -19.1%
